{"source": "patent US20240358826A1", "about": "(ORIONIS BIOSCIENCES, published 2024)", "binders": {"B1": {"name": "CD8 VHH_5GGS_Fc_hole + Fc-knob_20GGS_IL1α delta 1-6_C141A (Fc fusion)", "chain 1": "DVQLQESGGGLVQPGGSLRLSCAASGSIFSINVMGWYRQTPGKERELVAKITNFGITSYADSAQGRFTISRGNAKNTVYLQMNSLKPEDTAVYYCNLDTTGWGPPPYQYWGQGTQVTVSSGGSGGSGGSGGSGGSDKTHTCPPCPAPEAAGGPSVFLFPPKPKDTLMISRTPEVTCVVVDVSHEDPEVKFNWYVDGVEVHNAKTKPREEQYNSTYRVVSVLTVLHQDWLNGKEYKCQVSNKALPAPIEKTISKAKGQPREPQVCTLPPSRDELTKNQVSLSCAVKGFYPSDIAVEWESNGQPENNYKTTPPVLDSDGSFFLVSKLTVDKSRWQQGNVFSCSVMHEALHNHYTQKSLSLSPGK", "chain 2": "[letters of human IgG1 Fc with changes not shown]GGSGGSGGSGGSGGSGGSGGSGGSGGSGGSGGSGGSGGSGGSGGSGGSGGSGGSGGSGGSLSNVKYNFMRIIKYEFILNDALNQSIIRANDQYLTAAALHNLDEAVKFDMGAYKSSKDDAKITVILRISKTQLYVTAQDEDQPVLLKEMPEIPKTITGSETNLLFFWETHGTKNYFTSVAHPNLFIATKQDYWVALAGGPPSITDFQILENQA"}, "B2": {"name": "CD8 VHH_5GGS_Fc_hole + IL1a delta 1-6_20GGS_Fc-knob (Fc fusion)", "chain 1": "B1 chain 1", "chain 2": "LSNVKYNFMRIIKYEFILNDALNQSIIRANDQYLTAAALHNLDEAVKFDMGAYKSSKDDAKITVILRISKTQLYVTAQDEDQPVLLKEMPEIPKTITGSETNLLFFWETHGTKNYFTSVAHPNLFIATKQDYWVCLAGGPPSITDFQILENQAGGSGGSGGSGGSGGSGGSGGSGGSGGSGGSGGSGGSGGSGGSGGSGGSGGSGGSGGSGGS[letters of human IgG1 Fc with changes not shown]"}, "B3": {"name": "NKp46 scFv (VL-VH)_5GGS_Fc_hole + Fc-knob_20GGS_IL1α delta 1-6_S31A_C141S (Fc fusion)", "chain 1": "DIQMTQTTSSLSASLGDRVTISCRASQDISNYLNWYQQKPDGTVKLLIYYTSRLHSGVPSRFSGSGSGTDYSLTINNLEQEDIATYFCQQGNTRPWTFGGGTKLEIKGGGGSGGGGSGGGGSQVQLQQSGPELVKPGASVKMSCKASGYTFTDYVINWGKQRSGQGLEWIGEIYPGSGTNYYNEKFKAKATLTADKSSNIAYMQLSSLTSEDSAVYFCARRGRYGLYAMDYWGQGTSVTVSSGGSGGSGGSGGSGGSDKTHTCPPCPAPEAAGGPSVFLFPPKPKDTLMISRTPEVTCVVVDVSHEDPEVKFNWYVDGVEVHNAKTKPREEQYNSTYRVVSVLTVLHQDWLNGKEYKCQVSNKALPAPIEKTISKAKGQPREPQVCTLPPSRDELTKNQVSLSCAVKGFYPSDIAVEWESNGQPENNYKTTPPVLDSDGSFFLVSKLTVDKSRWQQGNVFSCSVMHEALHNHYTQKSLSLSPGK", "chain 2": "[letters of human IgG1 Fc with changes not shown]GGSGGSGGSGGSGGSGGSGGSGGSGGSGGSGGSGGSGGSGGSGGSGGSGGSGGSGGSGGSLSNVKYNFMRIIKYEFILNDALNQAIIRANDQYLTAAALHNLDEAVKFDMGAYKSSKDDAKITVILRISKTQLYVTAQDEDQPVLLKEMPEIPKTITGSETNLLFFWETHGTKNYFTSVAHPNLFIATKQDYWVSLAGGPPSITDFQILENQA"}}, "test_in_all_cases": "cell-based or functional assay", "key": {"human CD8 alpha [1]": {"biological_target": "T1, human CD8 alpha (human, UniProt P01732 22-235)"}, "IL-1R (IL-1 Receptor) [2]": {"biological_target": "T2, IL-1R (IL-1 Receptor) (UniProt P14778 18-569, limits assumed)", "T2 sequence (looked up)": "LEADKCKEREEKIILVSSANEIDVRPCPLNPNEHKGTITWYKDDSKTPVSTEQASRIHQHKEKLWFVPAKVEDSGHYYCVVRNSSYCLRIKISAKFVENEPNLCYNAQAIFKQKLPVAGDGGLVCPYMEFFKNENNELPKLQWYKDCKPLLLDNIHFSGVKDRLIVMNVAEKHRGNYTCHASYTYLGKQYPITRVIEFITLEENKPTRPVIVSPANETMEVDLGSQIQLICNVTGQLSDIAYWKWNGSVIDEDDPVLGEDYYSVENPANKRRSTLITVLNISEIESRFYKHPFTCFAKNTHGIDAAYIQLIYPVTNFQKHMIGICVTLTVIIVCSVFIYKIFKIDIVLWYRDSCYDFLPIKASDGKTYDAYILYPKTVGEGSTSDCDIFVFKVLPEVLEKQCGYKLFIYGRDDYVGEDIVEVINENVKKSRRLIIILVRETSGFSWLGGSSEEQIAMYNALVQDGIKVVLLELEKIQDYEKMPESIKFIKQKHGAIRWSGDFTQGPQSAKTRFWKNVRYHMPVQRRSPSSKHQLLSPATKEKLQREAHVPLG"}, "human CD8 alpha [3]": {"biological_target": "T1, human CD8 alpha", "T1 sequence (P01732 22-235)": "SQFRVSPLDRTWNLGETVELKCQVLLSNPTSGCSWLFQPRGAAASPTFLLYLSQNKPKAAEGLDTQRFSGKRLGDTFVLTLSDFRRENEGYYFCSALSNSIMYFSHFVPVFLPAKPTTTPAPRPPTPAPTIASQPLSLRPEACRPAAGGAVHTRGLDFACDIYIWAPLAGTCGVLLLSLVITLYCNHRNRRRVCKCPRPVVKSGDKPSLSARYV", "remark": "listed apart in the source"}, "IL-1R (IL-1 Receptor) [4]": {"biological_target": "T2, IL-1R (IL-1 Receptor)", "remark": "listed apart in the source"}, "human CD8 alpha [5]": {"biological_target": "T1, human CD8 alpha", "remark": "listed apart in the source"}, "human NKp46": {"biological_target": "T3, human NKp46 (human, UniProt O76036 22-304)", "T3 sequence (looked up)": "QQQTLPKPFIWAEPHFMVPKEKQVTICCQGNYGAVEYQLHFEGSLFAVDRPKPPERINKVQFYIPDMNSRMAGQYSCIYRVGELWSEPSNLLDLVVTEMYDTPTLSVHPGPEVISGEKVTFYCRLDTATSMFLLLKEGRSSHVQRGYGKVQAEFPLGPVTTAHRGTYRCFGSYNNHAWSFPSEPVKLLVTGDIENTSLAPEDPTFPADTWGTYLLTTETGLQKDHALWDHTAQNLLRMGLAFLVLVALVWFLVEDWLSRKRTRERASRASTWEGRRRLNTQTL"}}}
{"binder": "B1", "values": [{"measurement": "EC50 CD8 transfected (NF-KB reporter, HEK293T)", "setting": "human CD8 alpha [1]", "value": 1.83, "unit": "ng/mL"}, {"measurement": "Ratio (EC50 mock / CD8 transfected)", "setting": "human CD8 alpha [1]", "value": 1680}, {"measurement": "EC50 mock transfected (NF-KB reporter, HEK293T)", "setting": "IL-1R (IL-1 Receptor) [2]", "value": 3080, "unit": "ng/mL"}, {"measurement": "EC50 CD8 cell line (SEAP, HekBlue-IL-1β)", "setting": "human CD8 alpha [3]", "value": 3.3, "unit": "ng/mL"}, {"measurement": "Ratio (EC50 parental / CD8 cell line)", "setting": "human CD8 alpha [3]", "value": 196}, {"measurement": "EC50 parental cell line (SEAP, HekBlue-IL-1β)", "setting": "IL-1R (IL-1 Receptor) [4]", "value": 684, "unit": "ng/mL"}]}
{"binder": "B2", "values": [{"measurement": "EC50, CD8+ HekBlue-IL-1β cells (SEAP)", "setting": "human CD8 alpha [5]", "value": "~0.5", "unit": "ng/mL"}]}
{"binder": "B3", "values": [{"measurement": "EC50, IFNγ induction on isolated NK cells (with 10 ng/ml hIL-12)", "setting": "human NKp46", "value": "1.2e-07", "unit": "ng/mL"}]}
